# Measurements taken from the supplement of paper PMC8728848.
# The other results are listed elsewhere or left out.
# B1: SSR2 (Sclerotium rolfsii) (protein)
# chain: MVYKITVRVYQTNPDAFFHPVEKTVWKYANGGTWSITDDQHVLTMGGSGTSGTLRFHADNGESFTATFGVHNYKRWCDIVTNLAADETGMVINQQYYSQKNREEARERQLSNYQVKNAKGRNFQIVYTEAEGNDLHANLIIG
# Columns and labels:
# Assay in all cases: glycan array binding signal (z-score within array); higher = stronger binding
# Settings in all cases: glycan notation: IUPAC condensed, linker removed
# [1] = target: Man(a1-2)Man(a1-3)[Man(a1-2)Man(a1-6)]Man
# How it was run: (§1)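 Glycan array data were curated from 3228 arrays in the Consortium for Functional Glycomics database and kept only where the protein sequence was available. Glycan names were converted to IUPAC-condensed notation, and columns mapping to the same glycan were averaged. The binding signal is a within-array Z-score, averaged across arrays of the same protein sequence at different concentrations or buffers and across linkers. Negative Z-scores can be read as non-binding.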
# [2] = target: Man(a1-2)Man(a1-3)[Man(a1-2)Man(a1-6)]Man(a1-6)[Man(a1-2)Man(a1-2)Man(a1-3)]Man
# How it was run: as §1
# [3] = target: Man(a1-2)Man(a1-3)[Man(a1-2)Man(a1-6)]Man(a1-6)[Man(a1-2)Man(a1-2)Man(a1-3)]Man(b1-4)GlcNAc(b1-4)GlcNAc
# How it was run: as §1
# [4] = target: Man(a1-2)Man(a1-3)[Man(a1-6)]Man(a1-6)[Man(a1-2)Man(a1-3)]Man(b1-4)GlcNAc(b1-4)GlcNAc
# How it was run: as §1
# [5] = target: Man(a1-2)Man(a1-6)[Man(a1-3)]Man(a1-6)[Man(a1-2)Man(a1-2)Man(a1-3)]Man
# How it was run: as §1
# [6] = target: Man(a1-2)Man(a1-6)[Man(a1-3)]Man(a1-6)[Man(a1-2)Man(a1-2)Man(a1-3)]Man(b1-4)GlcNAc(b1-4)GlcNAc
# How it was run: as §1
# Man(a1-3)[Man(a1-6)]Man = target: Man(a1-3)[Man(a1-6)]Man
# How it was run: as §1
# [7] = target: Man(a1-3)[Man(a1-6)]Man(a1-6)[Man(a1-2)Man(a1-3)]Man(b1-4)GlcNAc(b1-4)GlcNAc
# How it was run: as §1
# [8] = target: Man(a1-3)[Man(a1-6)]Man(a1-6)[Man(a1-3)]Man
# How it was run: as §1
# [9] = target: Man(a1-3)[Man(a1-6)]Man(a1-6)[Man(a1-3)]Man(b1-4)GlcNAc(b1-4)GlcNAc
# How it was run: as §1
# [10] = target: Man(a1-3)[Man(a1-6)]Man(b1-4)GlcNAc(b1-4)GlcNAc
# How it was run: as §1
# [11] = target: Man(a1-3)[Man(a1-6)]Man(b1-4)GlcNAc(b1-4)[Fuc(a1-6)]GlcNAc
# How it was run: as §1
# Man(a1-6)Man = target: Man(a1-6)Man
# How it was run: as §1
# Man(b1-4)GlcNAc = target: Man(b1-4)GlcNAc
# How it was run: as §1
# MurNAc(b1-4)GlcNAc = target: MurNAc(b1-4)GlcNAc
# How it was run: as §1
# Neu5Ac(a2-3)Gal = target: Neu5Ac(a2-3)Gal
# How it was run: as §1
# [12] = target: Neu5Ac(a2-3)Gal(b1-3)GalNAc
# How it was run: as §1
# [13] = target: Neu5Ac(a2-3)Gal(b1-3)GalNAc(b1-3)Gal(a1-4)Gal(b1-4)Glc
# How it was run: as §1
# [14] = target: Neu5Ac(a2-3)Gal(b1-3)GalNAc(b1-4)Gal(b1-4)Glc
# How it was run: as §1
# [15] = target: Neu5Ac(a2-3)Gal(b1-3)GalNAc(b1-4)[Neu5Ac(a2-3)]Gal(b1-4)Glc
# How it was run: as §1
# [16] = target: Neu5Ac(a2-3)Gal(b1-3)GalNAc(b1-4)[Neu5Ac(a2-8)Neu5Ac(a2-3)]Gal(b1-4)Glc
# How it was run: as §1
# [17] = target: Neu5Ac(a2-3)Gal(b1-3)GalNAc6S
# How it was run: as §1
# [18] = target: Neu5Ac(a2-3)Gal(b1-3)GlcNAc
# How it was run: as §1
# [19] = target: Neu5Ac(a2-3)Gal(b1-3)GlcNAc(b1-2)Man
# How it was run: as §1
# [20] = target: Neu5Ac(a2-3)Gal(b1-3)GlcNAc(b1-2)Man(a1-3)[GlcNAc(b1-4)][Neu5Ac(a2-3)Gal(b1-3)GlcNAc(b1-2)Man(a1-6)]Man(b1-4)GlcNAc(b1-4)GlcNAc
# How it was run: as §1
# [21] = target: Neu5Ac(a2-3)Gal(b1-3)GlcNAc(b1-2)Man(a1-3)[Neu5Ac(a2-3)Gal(b1-3)GlcNAc(b1-2)Man(a1-6)]Man(b1-4)GlcNAc(b1-4)GlcNAc
# How it was run: as §1
# [22] = target: Neu5Ac(a2-3)Gal(b1-3)GlcNAc(b1-2)[Neu5Ac(a2-3)Gal(b1-3)GlcNAc(b1-4)]Man(a1-6)[Neu5Ac(a2-3)Gal(b1-3)GlcNAc(b1-2)Man(a1-3)]Man(b1-4)GlcNAc(b1-4)GlcNAc
# How it was run: as §1
# [23] = target: Neu5Ac(a2-3)Gal(b1-3)GlcNAc(b1-3)Gal(b1-3)GlcNAc
# How it was run: as §1
# [24] = target: Neu5Ac(a2-3)Gal(b1-3)GlcNAc(b1-3)Gal(b1-4)GlcNAc
# How it was run: as §1
# [25] = target: Neu5Ac(a2-3)Gal(b1-3)GlcNAc(b1-3)GalNAc
# How it was run: as §1
# [26] = target: Neu5Ac(a2-3)Gal(b1-3)GlcNAc(b1-4)Gal(b1-4)Glc
# How it was run: as §1
# [27] = target: Neu5Ac(a2-3)Gal(b1-3)GlcNAc(b1-6)GalNAc
# How it was run: as §1
# [28] = target: Neu5Ac(a2-3)Gal(b1-3)GlcNAc6S
# How it was run: as §1
# [29] = target: Neu5Ac(a2-3)Gal(b1-3)[Fuc(a1-4)]GlcNAc
# How it was run: as §1
# [30] = target: Neu5Ac(a2-3)Gal(b1-3)[Fuc(a1-4)]GlcNAc(b1-3)Gal(b1-3)[Fuc(a1-4)]GlcNAc
# How it was run: as §1
# [31] = target: Neu5Ac(a2-3)Gal(b1-3)[Fuc(a1-4)]GlcNAc(b1-3)Gal(b1-4)[Fuc(a1-3)]GlcNAc
# How it was run: as §1
# [32] = target: Neu5Ac(a2-3)Gal(b1-3)[GlcNAc(b1-6)]GalNAc
# How it was run: as §1
# [33] = target: Neu5Ac(a2-3)Gal(b1-3)[Neu5Ac(a2-6)]GalNAc
# How it was run: as §1
binder,measurement,setting,value
B1,glycan array binding signal (z-score),[1],-0.283
same,glycan array binding signal (z-score),[2],-0.301
same,glycan array binding signal (z-score),[3],-0.345
same,glycan array binding signal (z-score),[4],-0.276
same,glycan array binding signal (z-score),[5],-0.303
same,glycan array binding signal (z-score),[6],-0.294
same,glycan array binding signal (z-score),Man(a1-3)[Man(a1-6)]Man,-0.286
same,glycan array binding signal (z-score),[7],-0.244
same,glycan array binding signal (z-score),[8],-0.275
same,glycan array binding signal (z-score),[9],-0.271
same,glycan array binding signal (z-score),[10],0.392
same,glycan array binding signal (z-score),[11],-0.287
same,glycan array binding signal (z-score),Man(a1-6)Man,-0.266
same,glycan array binding signal (z-score),Man(b1-4)GlcNAc,-0.281
same,glycan array binding signal (z-score),MurNAc(b1-4)GlcNAc,-0.283
same,glycan array binding signal (z-score),Neu5Ac(a2-3)Gal,-0.283
same,glycan array binding signal (z-score),[12],2.28
same,glycan array binding signal (z-score),[13],-0.284
same,glycan array binding signal (z-score),[14],-0.202
same,glycan array binding signal (z-score),[15],-0.28
same,glycan array binding signal (z-score),[16],-0.286
same,glycan array binding signal (z-score),[17],2.31
same,glycan array binding signal (z-score),[18],-0.272
same,glycan array binding signal (z-score),[19],-0.296
same,glycan array binding signal (z-score),[20],-0.29
same,glycan array binding signal (z-score),[21],-0.273
same,glycan array binding signal (z-score),[22],-0.136
same,glycan array binding signal (z-score),[23],-0.291
same,glycan array binding signal (z-score),[24],-0.288
same,glycan array binding signal (z-score),[25],-0.272
same,glycan array binding signal (z-score),[26],-0.368
same,glycan array binding signal (z-score),[27],-0.294
same,glycan array binding signal (z-score),[28],-0.264
same,glycan array binding signal (z-score),[29],-0.284
same,glycan array binding signal (z-score),[30],-0.284
same,glycan array binding signal (z-score),[31],-0.26
same,glycan array binding signal (z-score),[32],0.987
same,glycan array binding signal (z-score),[33],0.198
